# Test results as given in the supplement of paper PMC11417369.
# ± gives the standard deviation of the averaged measurements. The list shows a part of the results.
# System: PfAP2-I AP2 domain 3 (GST-tagged)
# Assay: gcPBM binding intensity (ln(normalized median fluorescence intensity)); higher = stronger DNA binding
# In short: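 Binding of GST-tagged P. falciparum DNA-binding domains, expressed in E. coli and used at about 25 μg on average, was carried out for 1 h in 1× PBS containing 1% milk, 0.2 mg/ml BSA, 0.5% salmon testes DNA and 0.03% Triton X-100. The target was an Agilent 4 × 180k array of primer-extended double-stranded 36-bp intergenic genomic probes plus negative controls, read with Alexa488 anti-GST antibody at 488 nm. Binding intensity is the highest Masliner-normalised natural-log median intensity across replicate spots of either probe orientation.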
row,Sequence,gcPBM binding intensity (ln)
1,TTTTTTTTAAAAAACACACACCTAAACAAGATATTT [CACACA_site6541],7.93 ± 0.57
2,AAAAATATAAACTGCACACACACAAAAAAAGAAAAA [CACACA_site648],8.82 ± 0.14
3,AAATAAAAAAGTAGTACACACTTCACGATATTTTTT [CACACA_site6015],7.89 ± 0.43
4,TAAGAATAATGACATAGTACAATTTAATAGATCTAA [XGTACX_site3670],7.37 ± 0.55
5,AAGTTTATTTGTTGCACACATATAAGTAGAGAAAAT [CACACA_site3027],9.42 ± 0.071
6,TTTTCAAAATAATATTATATCAAATGCTAAAAAGAA [TGCATGCA_negctrl_site588],7.86 ± 0.49
7,TTACGTTATATACATACACACCCACGCACAAAAAAA [CACACA_site6537],8.7 ± 0.4
8,TACAGATATTATTGCACACATATAAAATACCCCCAA [CACACA_site6014],10.4 ± 0.47
9,ATTAAATACTTCGATTGTACAATTTTTTTTTTTTTT [XGTACX_site832],7.79 ± 0.4
10,ATATATATATATCACCGTACTTATATAATAACATGA [XGTACX_site4398],9.29 ± 0.3
11,ATAATATTCGAGTGTGCACACAAACATACATATATA [CACACA_site3396],9.54 ± 0.24
12,ATTTTTATTAAAATATGTACGTATTTTACTCATACA [XGTACX_site5330],7.83 ± 0.59
13,ATACAGAAAAAAAACACACACACATAATATACATAC [CACACA_site1933],8.03 ± 0.57
14,ACAGATATATTTATTTGTACATATCACCAAAATGGA [XGTACX_site5644],7.54 ± 0.59
15,TTTTTTTTTTATTTTTGTACATATATTTCAGTATTA [XGTACX_site8396],8.06 ± 0.75
16,TAATTATTCTATTAAGTGCATATATTTTTAAAAAGA,9.89 ± 0.3
17,TTAATATAATAAAATCGTACAAATAAAATATAAAAT [XGTACX_site8730],8.06 ± 0.52
18,AACCAATATGAGTATACACACATAAATATAAATATA [CACACA_site5968],7.55 ± 0.4
19,AAAAAAAAAAAAGATACACACAAAAATGGATATATA [CACACA_site7069],7.39 ± 0.63
20,AAAAATGAGAAACACACACACATATATATATATATA [CACACA_site2228],9.29 ± 0.47
21,TCTTTAAATCGAGTGTTAAATAATATAATATAAAAA [CACACA_negctrl_site1507],7.7 ± 0.53
22,ATAATATATATTAAACGTACATAAAATAATTATGGA [XGTACX_site1670],7.65 ± 0.41
23,TAATATTTATGTTAATGTACAAAAAAACAAAACAAA [XGTACX_site301],7.85 ± 0.4

row,Sequence,gcPBM binding intensity (ln)
1,GTATGTATATATGTATGTACTTATGTATCATTATTA [XGTACX_site2438],7.79 ± 0.028
2,TATTTTGTTTTAAAAGTACACACTTTTAATTAGATT [CACACA_site1180],7.83 ± 0.22
3,ATAACAAAATGAAGAGTGCATTACCAAGTGGGTAAA [GTGCAC_site9450],10.93 ± 0.014
4,TTAATTTGTTCTTACACACACATATAAATATATTTA [CACACA_site6676],8.02 ± 0.54
5,ATATTTAAGGCGTGTATGCACACGACTATTCCGTAT [CACACA_site1080],8.54 ± 0.49
6,ATGATACTAAAAAATTGTACATATAACAAAAGGTAT [XGTACX_site2527],8.08 ± 0.41
7,CATATATTTTGAAACACACACATATATAATATACAT [CACACA_site1158],7.68 ± 0.45
8,TTATCATTATATAGTTGTACATATTTATTTATAAAA [XGTACX_site2310],7.95 ± 0.2
9,TTTGTATAATACATGTGTACGTATTTTTATATAAAT [XGTACX_site8656],8.09 ± 0.29
10,AGAACTAAAAGAACATGTACATAAATTCTAAATAAT [XGTACX_site4084],7.67 ± 0.57
11,ATATGATCATACTGTGCATGTTAATGCAAATTTTAT [TGCATGCA_site984],8.56 ± 0.48
12,TACATATATTATACATGTACACATTTATACATATCG [XGTACX_site2866],7.78 ± 0.35
13,ATAATTGTCCATTTTTTCTTTTTTTTTTTCTTTTTA [CACACA_negctrl_site928],7.55 ± 0.69
14,TTTTTTTTTATATAAAAAAAAATTTTTATTATTTTA [GTGCAC_negctrl_site347],7.46 ± 0.77
15,CGCACAGACGGACACACACACACATATATATATATA [CACACA_site5249],9.4 ± 0.3
16,AAAAAAAAAAAAAAAACACACATTTAGCAATCTACA [CACACA_site3706],8.85 ± 0.41
17,TTAACAAAACATAAGGTGCTTAAAATTTTATATCAC [GTGCAC_site9839],9.81 ± 0.17
18,TCTGTTAAACAAAAAAGTACTAAAATAATGTAAAAT [XGTACX_site6826],8 ± 0.62
19,ATTATTATATATGTATGTACTTATATAATATATATA [XGTACX_site5198],8.04 ± 0.36
20,TATATATTGTTATATACACACATGTATTTAAAAAAT [CACACA_site5737],7.69 ± 0.33
21,ATATGTACAAGTGTTTATGCTGAACGGAAATCCTGT [CACACA_negctrl_site1372],7.71 ± 0.67
22,TACCTATATAGACACACACACATATATTTATTTATA [CACACA_site6728],7.89 ± 0.54
23,TATATGTATTTGTATACACACAAATGTATATATTTA [CACACA_site1265],7.38 ± 0.35

row,Sequence,gcPBM binding intensity (ln)
1,ATGTATTAAAATTTATGTACTTATATATAAATATAT [XGTACX_site1025],7.76 ± 0.48
2,AATATATATACTATAACACACATACACCCAAAAAAA [CACACA_site4453],8.28 ± 0.3
3,TTATATGGATATACAGTGCATATATACATATAAGTG,9.4 ± 0.042
4,AAAAAAAAAAGAAACACACACATATATATATAGAAT [CACACA_site1777],7.74 ± 0.75
5,CATACCTTTTAATGTACACACATTTCTTTTTTGTTA [CACACA_site892],8.04 ± 0.54
6,TATAAACATAATATTTAACACACATGAAGATGTATA [CACACA_site8252],7.59 ± 0.24
7,AAAAAAAAAAAAATATATATATATATATATATATAT [GTGCAC_negctrl_site212],9.49 ± 0.43
8,AAATGTAAATTTATCCGTACATATATATATTTATAT [XGTACX_site7024],7.66 ± 0.43
9,AAAAAAAAAAATTAAAGTACAAAAATATTAAAAATA [XGTACX_site6517],7.53 ± 0.42
10,TTTTTTGTATTTTTCACACACACATAAGTAAACAAT [CACACA_site1900],8.29 ± 0.5
11,TATTATGTATGTATATGTACGTATCTTATTTTATTT [XGTACX_site5008],7.68 ± 0.36
12,TATACATACATTAGACGTACACATTTTACCTACACC [XGTACX_site3586],8.2 ± 0.14
13,AAATTATTATATATATGTACGTATAATGTATTTTGT [XGTACX_site2903],7.77 ± 0.31
14,AAATATAGAATACATGTGCACATAATATATATATAT,9.65 ± 0.16
15,TCTTTTTAAGGGATTTTTTTTTTTTTTTTAAAAAGA [CACACA_negctrl_site1274],7.38 ± 0.45
16,TTTGTATCTATATATTGTACGAATTACTTTCATTTA [XGTACX_site4785],7.71 ± 0.58
17,AATACAATTTATAACACACACACAAGAATACCTATA [CACACA_site6705],7.99 ± 0.29
18,TATATATATATATATACACACACACCCATATATATA [CACACA_site8812],9.62 ± 0.56
19,ACATAAATAAATTAATGTACATATATATTTGTATAT [XGTACX_site3160],7.71 ± 0.16
20,TTTTTTTTTTTTTCAAGTACATATATATATATATAA [XGTACX_site2098],7.99 ± 0.45
21,TTTTTATATGTTAAGTGTACGTTTACATTTTATACT [XGTACX_site3485],8.06 ± 0.36
22,TGTTGTTACAGATATACACACATATATATATTATAT [CACACA_site5342],7.84 ± 0.54
23,TTGGGTGCATATATTTGTACACATTATTTCTATTTT [XGTACX_site3688],11.2 ± 0.85

row,Sequence,gcPBM binding intensity (ln)
1,TAAATTATAACGTGCACACATATTTAAAATGAAATG [CACACA_site2820],11.3 ± 0.23
2,ATAAACATGGAAATGTATTAAAAGCAAGTATATAAA [XGTACX_negctrl_site516],7.8 ± 0.76
3,AAAAAAAATTTCTTCACACATAAATAAATAAATAAA [CACACA_site4841],7.88 ± 0.81
4,TGCATTTATATCTTCACACATATATATATATATATA [CACACA_site4516],9.29 ± 0.49
5,ATATGTATATATACATGTACATATTTTTCCTTTCTT [XGTACX_site149],7.55 ± 0.38
6,ATTAAAAATTCAATTGCACACGCACATATTTTAATA [CACACA_site8618],8.91 ± 0.092
7,ATGTAATAAAATAATTGTACAATGTAACTAATTTTT [XGTACX_site2871],7.71 ± 0.52
8,CTTCTTTTGTGATAAAGTACAAATATTTTGAAATAT [XGTACX_site1156],7.93 ± 0.22
9,TTTTCTATAAGATTTGCACACAACTTATTCTATTAA [CACACA_site3752],9.03 ± 0.2
10,ATAAATAAATAAATAAATATATATATGAAATAATGT [TGCATGCA_negctrl_site12],7.74 ± 0.54
11,AAAAAATATAAAACGAGTACATATATAATAAGCAAA [XGTACX_site1360],7.96 ± 0.32
12,ATTATAGACAACTCTTTTTCTAAACTATTTTATTTT [CACACA_negctrl_site1754],7.76 ± 0.8
13,CATAATATTTGTGAAAGTACTTATTTTACAATAGGG [XGTACX_site5004],7.89 ± 0.34
14,TTTATTCTCCACACCCGTACACATTTTTTTTGCATA [XGTACX_site5615],8.47 ± 0.42
15,AAAAAAAAAAAAAACACACACACACGCAGATATATA [CACACA_site6672],8.09 ± 0.69
16,TTTCTTAAAATATAAAGTACTAAAATGAAAATATAT [XGTACX_site2173],7.87 ± 0.35
17,AAATAAAGAAATATATGTACATATATATATATATAT [XGTACX_site5131],9.48 ± 0.55
18,ATATATATATACATATGTACATATATATTTATACAT [XGTACX_site2463],8.93 ± 0.13
19,TACACAGACGGACACACACACACACTAGAAAAAAAA [CACACA_site4435],8.18 ± 0.37
20,AATGCACTATTTAAAAGTACACATAAGAAAAGCATA [XGTACX_site1739],9.24 ± 0.28
